Reference: publication PMC6522503
Results are given in words; binding and its absence hold for the method and conditions named. For part of these data: In cells and extracts the contact can be indirect. Some results given as binding are weak or reduced against the parent protein; the word gives no strength. Values belong to the molecule of their own block, whether it stands above or below them.

The chains behind the UniProt entries cited, without tags or fusion partners. Where a name states a change or a piece, a line headed by the entry shows the natural chain unless it says otherwise. Residues count along the entry.
UniProt Q61846: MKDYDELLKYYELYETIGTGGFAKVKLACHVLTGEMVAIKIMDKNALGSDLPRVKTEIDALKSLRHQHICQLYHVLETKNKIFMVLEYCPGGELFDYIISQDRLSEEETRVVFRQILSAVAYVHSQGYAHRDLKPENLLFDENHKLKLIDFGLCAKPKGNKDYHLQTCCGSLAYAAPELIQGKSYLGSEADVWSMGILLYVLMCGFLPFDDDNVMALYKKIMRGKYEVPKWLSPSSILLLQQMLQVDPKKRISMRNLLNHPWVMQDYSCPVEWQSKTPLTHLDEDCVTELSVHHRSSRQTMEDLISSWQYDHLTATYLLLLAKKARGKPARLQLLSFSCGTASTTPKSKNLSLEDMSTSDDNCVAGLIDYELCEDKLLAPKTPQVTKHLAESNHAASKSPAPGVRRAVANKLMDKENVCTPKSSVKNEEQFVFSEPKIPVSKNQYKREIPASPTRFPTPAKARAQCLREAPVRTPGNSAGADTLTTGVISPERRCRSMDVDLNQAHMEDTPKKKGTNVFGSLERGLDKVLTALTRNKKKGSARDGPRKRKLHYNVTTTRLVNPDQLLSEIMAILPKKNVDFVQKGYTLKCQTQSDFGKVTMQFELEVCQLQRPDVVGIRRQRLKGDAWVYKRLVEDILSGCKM
MCAT, N-terminal kinase domain of MPK38 (amino acids 7–269): residues 7-269 of Q61846
MPKC, carboxy-terminal domain of MPK38 (amino acids 270–643): residues 270-643 of Q61846
UniProt P11802: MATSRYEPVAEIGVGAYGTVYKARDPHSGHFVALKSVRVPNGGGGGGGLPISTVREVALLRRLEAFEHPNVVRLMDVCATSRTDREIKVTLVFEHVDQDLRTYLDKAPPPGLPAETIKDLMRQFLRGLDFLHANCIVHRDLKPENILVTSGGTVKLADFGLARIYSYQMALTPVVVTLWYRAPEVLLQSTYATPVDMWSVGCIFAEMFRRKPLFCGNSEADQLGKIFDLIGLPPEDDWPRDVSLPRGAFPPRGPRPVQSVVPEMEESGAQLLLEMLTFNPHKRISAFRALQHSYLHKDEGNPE
UniProt P38936: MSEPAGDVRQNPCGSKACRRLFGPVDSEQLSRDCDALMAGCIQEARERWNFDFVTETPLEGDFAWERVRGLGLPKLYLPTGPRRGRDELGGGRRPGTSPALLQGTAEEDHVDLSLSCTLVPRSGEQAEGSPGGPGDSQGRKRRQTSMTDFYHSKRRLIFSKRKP
UniProt P37231: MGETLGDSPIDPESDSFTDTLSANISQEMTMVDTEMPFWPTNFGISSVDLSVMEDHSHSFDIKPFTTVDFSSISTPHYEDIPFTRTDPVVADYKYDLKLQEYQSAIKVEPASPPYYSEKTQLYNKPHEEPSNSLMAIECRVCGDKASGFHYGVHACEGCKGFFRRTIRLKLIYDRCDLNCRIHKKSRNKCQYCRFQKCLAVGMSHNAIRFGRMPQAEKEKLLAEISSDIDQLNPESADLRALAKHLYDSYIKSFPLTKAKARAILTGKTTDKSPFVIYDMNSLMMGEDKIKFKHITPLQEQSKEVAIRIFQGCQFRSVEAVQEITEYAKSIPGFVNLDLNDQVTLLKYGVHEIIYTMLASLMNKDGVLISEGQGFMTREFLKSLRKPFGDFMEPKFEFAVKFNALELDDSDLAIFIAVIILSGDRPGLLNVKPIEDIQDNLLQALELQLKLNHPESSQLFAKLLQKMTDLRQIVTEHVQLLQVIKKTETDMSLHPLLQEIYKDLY
UniProt Q14680: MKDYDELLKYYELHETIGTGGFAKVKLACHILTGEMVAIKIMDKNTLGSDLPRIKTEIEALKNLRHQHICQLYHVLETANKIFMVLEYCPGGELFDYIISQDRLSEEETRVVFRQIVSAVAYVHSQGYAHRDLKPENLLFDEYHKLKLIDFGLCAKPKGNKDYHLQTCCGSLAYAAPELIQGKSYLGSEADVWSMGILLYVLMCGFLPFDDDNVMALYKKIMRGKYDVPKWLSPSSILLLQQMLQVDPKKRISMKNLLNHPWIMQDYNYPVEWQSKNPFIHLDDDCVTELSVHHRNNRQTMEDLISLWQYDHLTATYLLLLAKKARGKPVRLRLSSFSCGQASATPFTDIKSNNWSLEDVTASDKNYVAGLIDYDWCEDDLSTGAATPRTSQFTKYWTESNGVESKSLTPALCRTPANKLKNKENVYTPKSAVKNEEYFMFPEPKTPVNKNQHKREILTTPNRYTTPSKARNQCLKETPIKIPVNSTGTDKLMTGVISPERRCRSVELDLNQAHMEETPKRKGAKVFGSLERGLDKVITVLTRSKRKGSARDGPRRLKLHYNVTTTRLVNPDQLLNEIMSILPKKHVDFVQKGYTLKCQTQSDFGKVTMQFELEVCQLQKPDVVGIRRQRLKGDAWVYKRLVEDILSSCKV
UniProt P37238: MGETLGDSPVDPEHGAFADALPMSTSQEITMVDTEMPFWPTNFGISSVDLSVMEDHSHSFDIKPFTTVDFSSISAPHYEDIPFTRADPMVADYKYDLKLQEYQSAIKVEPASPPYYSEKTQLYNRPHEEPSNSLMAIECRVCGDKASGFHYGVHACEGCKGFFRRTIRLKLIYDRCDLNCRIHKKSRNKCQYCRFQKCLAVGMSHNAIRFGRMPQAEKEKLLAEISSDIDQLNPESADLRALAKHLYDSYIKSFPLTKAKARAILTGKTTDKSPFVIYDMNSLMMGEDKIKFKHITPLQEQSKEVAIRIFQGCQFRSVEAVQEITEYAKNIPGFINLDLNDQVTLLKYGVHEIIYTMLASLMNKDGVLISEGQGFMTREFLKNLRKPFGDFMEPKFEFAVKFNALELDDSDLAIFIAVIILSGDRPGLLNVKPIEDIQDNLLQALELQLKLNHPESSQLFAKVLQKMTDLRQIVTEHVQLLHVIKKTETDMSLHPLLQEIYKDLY
UniProt Q00987: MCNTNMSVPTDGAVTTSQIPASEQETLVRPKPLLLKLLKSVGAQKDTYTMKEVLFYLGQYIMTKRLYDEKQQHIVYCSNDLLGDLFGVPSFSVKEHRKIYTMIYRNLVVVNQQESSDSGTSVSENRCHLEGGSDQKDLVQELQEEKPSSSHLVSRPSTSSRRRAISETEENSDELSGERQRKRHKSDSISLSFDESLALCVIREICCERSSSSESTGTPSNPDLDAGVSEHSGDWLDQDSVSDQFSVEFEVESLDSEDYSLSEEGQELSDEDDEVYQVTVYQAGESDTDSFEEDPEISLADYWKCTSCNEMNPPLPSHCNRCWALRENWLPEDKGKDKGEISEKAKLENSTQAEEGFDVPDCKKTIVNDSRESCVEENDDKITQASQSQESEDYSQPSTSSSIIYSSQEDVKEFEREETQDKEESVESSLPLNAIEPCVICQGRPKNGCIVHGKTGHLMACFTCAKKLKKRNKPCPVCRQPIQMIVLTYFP

Tests used:
[1] = molecular target: glutathione S-transferase (GST)-tagged MPK38 (wild type) (mouse) (UniProt Q61846); assay: pull-down; HEK293 cells transiently transfected with MPK38 or p21 deletion constructs; complex measured by immunoblot with anti-FLAG or anti-p21 antibody; capture step not told in the legend
[2] = molecular target: GST-tagged recombinant MPK38 (WT) (mouse) (UniProt Q61846); assay: native gel or EMSA; native PAGE (8%); recombinant GST-tagged MPK38 (WT, MCAT or MPKC) incubated with in vitro-translated 35S-labeled p21 at room temperature for 1 h; only the target purified
[3] = molecular target: GST-tagged recombinant MCAT (MPK38 amino acids 7–269) (mouse) (UniProt Q61846); assay: as above
[4] = molecular target: GST-tagged recombinant MPKC (MPK38 amino acids 270–643) (mouse) (UniProt Q61846); assay: as above
HA-CDK4 = HA-CDK4 (UniProt P11802); assay: co-IP; HEK293 cells transiently transfected (48 h), with or without WT or K40R MPK38; lysates immunoprecipitated with anti-HA antibody, immunoblot with anti-FLAG antibody
[5] = molecular target: p21, endogenous in HEK293 cells (human (endogenous in HEK293)) (UniProt P38936); assay: co-IP; endogenous p21–Mdm2 complex in HEK293 cells transfected with MPK38 (WT or K40R); immunoblot with anti-Mdm2 antibody
[6] = molecular target: peroxisome proliferator-activated receptor γ (PPARγ), transfected (UniProt P37231); assay: co-IP; HEK293 cells transiently transfected; cytosolic fraction; p21-PPARγ complex assessed by immunoblot with anti-FLAG antibody
[7] = molecular target: MPKC, carboxy-terminal domain of MPK38 (amino acids 270–643) (mouse) (UniProt Q61846); assay: pull-down; HEK293 cells transiently transfected with MPK38 or p21 deletion constructs; complex measured by immunoblot with anti-FLAG or anti-p21 antibody; capture step not told in the legend
[8] = molecular target: MCAT, N-terminal kinase domain of MPK38 (amino acids 7–269) (mouse) (UniProt Q61846); assay: as above
[9] = molecular target: peroxisome proliferator-activated receptor γ (PPARγ), transfected (UniProt P37231); assay: co-IP; exogenous p21 and PPARγ in MEF cells expressing MPK38 (+/+) or not (−/−); complex in the nucleus
[10] = molecular target: glutathione S-transferase (GST)-tagged MPK38 (wild type) (mouse) (UniProt Q61846); assay: pull-down; HEK293 cells co-transfected; GST-tagged MPK38 purified on glutathione-sepharose beads (GST purification); immunoblot with anti-FLAG antibody
[11] = molecular target: peroxisome proliferator-activated receptor γ (PPARγ), transfected (UniProt P37231); assay: co-IP; HEK293 cells transiently transfected; nuclear fraction; p21-PPARγ complex assessed by immunoblot with anti-FLAG antibody
[12] = molecular target: MPK38/MELK, endogenous in HEK293 cells (human (endogenous in HEK293)) (UniProt Q14680); assay: co-IP; endogenous proteins; lysates of HEK293, NIH 3T3 and 3T3-L1 cells immunoprecipitated with anti-MPK38 antibody or rabbit pre-immune serum, immunoblot with anti-p21; HEK293 also with or without H2O2, TNF-α, thapsigargin, ionomycin, TGF-β1, 5-fluorouracil, doxorubicin
[13] = molecular target: MPK38, endogenous in NIH 3T3 and 3T3-L1 cells (mouse (endogenous in NIH 3T3 and 3T3-L1)) (UniProt Q61846); assay: as above
[14] = molecular target: PPARγ, endogenous in MEF cells (mouse (endogenous in MEF)) (UniProt P37238); assay: co-IP; endogenous p21 and PPARγ in MEF cells expressing MPK38 (+/+) or not (−/−); complex in the nucleus

Molecule: in vitro-translated 35S-labeled wild-type p21 (from UniProt P38936 1-164)
binding [2]: binds
binding [3]: no binding
binding [4]: binds

Molecule: p21 deletion construct 71–164 (amino acids 71–164) (from UniProt P38936 71-164) (domain or fragment)
binding [1]: no binding

Molecule: p21, endogenous in HEK293 cells (from UniProt P38936 1-164)
binding [12]: binds

Molecule: p21 deletion construct 46–71 (amino acids 46–71) (from UniProt P38936 46-71) (domain or fragment)
binding [1]: binds

Further lines, with some results ahead:

binding [1]: no binding
Molecule: p21 deletion construct 141–164 (amino acids 141–164) (from UniProt P38936 141-164) (domain or fragment)

binding (HA-CDK4): binds
Molecule: FLAG-tagged p21 T55A (from UniProt P38936 1-164)

binding [5]: binds
Molecule: mouse double minute 2 (MDM2), endogenous in HEK293 cells (from UniProt Q00987 1-491) (enzyme)

binding [7]: binds
binding [8]: no binding
binding [1]: binds
binding [9]: binds
binding [10]: binds
binding [11]: binds
Molecule: FLAG-tagged p21 (wild type) (from UniProt P38936 1-164)
binding [6]: no binding (condition: in the cytosolic fraction)

binding [13]: binds
binding [14]: binds
B1: p21, endogenous in mouse cells (NIH 3T3, 3T3-L1, MEF) (protein, UniProt P39689 1-159)
chain: MSNPGDVRPVPHRSKVCRCLFGPVDSEQLRRDCDALMAGCLQEARERWNFDFVTETPLEGNFVWERVRSLGLPKVYLSPGSRSRDDLGGDKRPSTSSALLQGPAPEDHVALSLSCTLVSERPEDSPGGPGTSQGRKRRQTSLTDFYHSKRRLVFCKRKP
